Assay results taken from paper PMC5540273 (PLoS ONE, 2017).
For some of these results: This list holds what a sample rich in strong results left over. The list shows a part of the results, in another mix than the full data.

Assays:
Details in all cases: concentration: 1 μM,replicates: in singlicate; n = 1
ACVRL1 = system: ACVRL1
ADCK3 = system: T1, ADCK3
T1 construct: gene CABC1

ADCK4 = system: ADCK4
AKT1 = system: AKT1
AKT2 = system: AKT2
AKT3 = system: AKT3
ALK = system: ALK
AMPK-alpha1 = system: T2, AMPK-alpha1
T2 construct: gene PRKAA1

AMPK-alpha2 = system: T3, AMPK-alpha2
T3 construct: gene PRKAA2

ANKK1 = system: ANKK1
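Further: KINOMEscan kinase panel screen.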

Row | Compound | %Inh (ACVRL1) [%] | %Inh (ADCK3) [%] | %Inh (ADCK4) [%] | %Inh (AKT1) [%] | %Inh (AKT2) [%] | %Inh (AKT3) [%] | %Inh (ALK) [%] | %Inh (AMPK-alpha1) [%] | %Inh (AMPK-alpha2) [%] | %Inh (ANKK1) [%]
1 | COc1ccc(C2=C(Nc3cccc(Cl)c3)C(=O)NC2=O)cc1 [SB-326892] | 16 | 18 | 18 | 0 | 0 | 17 | 0 | 18 | 0 | 0
2 | O=C1NC(=O)C(c2ccccc2Cl)=C1Nc1cccc(C(=O)O)c1 [SB-390526] | 0 | 4 | 16 | 0 | 0 | 0 | 0 | 0 | 0 | 0
3 | O=C(O)c1ccc(-c2nc(-c3ccc(F)cc3)c(-c3ccncc3)[nH]2)cc1 [SB-202620] | 29 | 0 | 6 | 3 | 11 | 8 | 0 | 23 | 12 | 0
4 | Cc1ccc(C)c(Oc2nccc(-c3c(-c4ccc(F)cc4)ncn3C3CCNCC3)n2)c1.O=C(O)C(F)(F)F.O=C(O)C(F)(F)F.O=C(O)C(F)(F)F [SB-284852] | 25 | 17 | 19 | 22 | 0 | 7 | 0 | 19 | 3 | 0
5 | O=C1NC(=O)C(c2ccc(Cl)cc2)=C1Nc1ccc(O)c(Cl)c1 [SB-405367] | 75 | 10 | 5 | 4 | 0 | 6 | 6 | 3 | 4 | 6
6 | O=C1NC(=O)c2c1c(-c1ccccc1)cc1[nH]c3ccc(O)cc3c21 | 0 | 8 | 5 | 0 | 20 | 96.9 | 8 | 80 | 80 | 33
7 | O=C1NC(=O)C(c2ccc(Cl)cc2)=C1Nc1cccc(C(=O)O)c1 [SB-360737] | 0 | 5 | 22 | 0 | 6 | 0 | 24 | 0 | 16 | 3
8 | O=C1NC(=O)C(c2ccc(Cl)cc2)=C1Nc1ccccc1 [SB-317661] | 0 | 0 | 0 | 0 | 0 | 0 | 77 | 0 | 0 | 5
9 | O=C1NC(=O)C(c2ccccc2)=C1Nc1cc(Cl)c(O)c(Cl)c1 [SB-390530] | 0 | 0 | 3 | 2 | 21 | 0 | 0 | 17 | 9 | 15
10 | O=C1NC(=O)C(c2ccccc2Cl)=C1Nc1ccccc1 [SB-376715] | 0 | 14 | 11 | 0 | 2 | 47 | 0 | 23 | 0 | 0
11 | CS(=O)(=O)c1ccccc1-c1nc(-c2ccc(F)cc2)c(-c2ccncc2)[nH]1 [SB-213663] | 0 | 0 | 12 | 0 | 0 | 25 | 17 | 0 | 0 | 0
12 | O=C1NC(=O)C(c2ccccc2)=C1Nc1ccc(Cl)c(C(=O)O)c1 [SB-390532] | 0 | 12 | 46 | 0 | 13 | 0 | 39 | 0 | 0 | 1
13 | O=C1NC(=O)C(c2ccc(Cl)cc2)=C1Nc1cccc(O)c1 [SB-333613] | 0 | 0 | 19 | 12 | 0 | 0 | 50 | 8 | 13 | 25
14 | COc1cccc(C2=C(Nc3ccc(SC)cc3)C(=O)NC2=O)c1 [SB-331032] | 0 | 0 | 4 | 0 | 0 | 2 | 11 | 17 | 0 | 2
15 | Cc1cc(C)cc(Oc2nccc(-c3c(-c4ccc(F)cc4)ncn3C3CCNCC3)n2)c1.O=C(O)C(F)(F)F.O=C(O)C(F)(F)F.O=C(O)C(F)(F)F [SB-284851] | 0 | 20 | 0 | 15 | 0 | 0 | 19 | 0 | 5 | 0
16 | CSc1ccc(NC2=C(c3cccc(Cl)c3)C(=O)NC2=O)cc1 [SB-341528] | 0 | 7 | 7 | 0 | 0 | 15 | 20 | 0 | 0 | 16
